Assay results from US20130122005A1, “ANTICANCER COMBINATION THERAPY” (priority 2011, published 2013).
Numbering of substitutions follows the chain as printed.

B1: 60814: human IgG1 anti-IGF antibody; SEQ ID NO:35 (heavy chain) and SEQ ID NO:36 (light chain) (antibody, listed as Homo sapiens)
heavy: QVELVESGGGLVQPGGSLRLSCAASGFTFSNYWMHWVRQAPGKGLEWVSGISGWSSWTYYADSVKGRFTISRDNSKNTLYLQMNSLRAEDTAVYYCARFGIDAYTKVYFDYWGQGTLVTVSS[human IgG1 constant region not printed]
light: DIELTQPPSVSVAPGQTARISCSGDNIPLKYVSWYQQKPGQAPVLVIHDDNKRPSGIPERFSGSNSGNTATLTISGTQAEDEADYYCSSWDTLDIFNVFGGGTKLTVLGQPKAAPSVTLFPPSSEELQANKATLVCLISDFYPGAVTVAWKGDSSPVKAGVETTTPSKQSNNKYAASSYLSLTPEQWKSHRSYSCQVTHEGSTVEKTVAPTECS
B2: 60819: human IgG1 anti-IGF antibody; SEQ ID NO:37 (heavy chain) and SEQ ID NO:38 (light chain) (antibody, listed as Homo sapiens)
heavy: B1 heavy
light: B1 light with S88Q, W90Y, T92Y, L93F, D94P, I95K, N97V
B3: 60833: human IgG1 anti-IGF antibody; SEQ ID NO:39 (heavy chain) and SEQ ID NO:40 (light chain) (antibody, listed as Homo sapiens)
heavy: QVELVESGGGLVQPGGSLRLSCAASGFTFTSYWMSWVRQAPGKGLELVSSITSYGSFTYYADSVKGRFTISRDNSKNTLYLQMNSLRAEDTAVYYCARNMYTHFDSWGQGTLVTVSS[human IgG1 constant region not printed]
light: DIVLTQPPSVSGAPGQRVTISCSGSSSNIGSNSVSWYQQLPGTAPKLLIYDNSKRPSGVPDRFSGSKSGTSASLAITGLQSEDEADYYCQSRDTYGYYWVFGGGTKLTVLGQPKAAPSVTLFPPSSEELQANKATLVCLISDFYPGAVTVAWKGDSSPVKAGVETTTPSKQSNNKYAASSYLSLTPEQWKSHRSYSCQVTHEGSTVEKTVAPTECS

Tests used:
[1] = molecular target: T1, mouse IGF-2 (Mus musculus, UniProt P09535); assay: Direct immunosorbent assay (ELISA), mouse IGF-2; assay type: binding; conditions: up to 50 ng/ml
T1 construct: insulin-like growth factor-2 (IGF-2; a 67 amino-acid polypeptide)
T1 sequence (P09535 25-91 limits assumed): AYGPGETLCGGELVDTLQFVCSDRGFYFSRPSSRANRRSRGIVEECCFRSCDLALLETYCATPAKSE
Experimental: (§1) Fully human IgG1 antibodies that bound with high affinity to IGF-1 are also tested for binding to human IGF-1 in direct immunosorbent assays (ELISA). Assays are performed by coating human IGF-1 (R&D Systems, No. 291-G1) to 96-well Maxisorb plates at a concentration of 0.5 μg/ml overnight at 4° C. (100 μl/well). Coating buffer alone is used as a control for unspecific binding. Wells are then washed once with washing buffer (1×TBS-T) and residual binding sites are blocked with 200 μl blocking buffer for 1 hour at room temperature on an orbital shaker followed by a further wash cycle. Serial three-fold dilutions of each test antibody in blocking buffer are prepared directly on the coated plates. Typical concentrations used are 50, 16.6, 5.6, 1.8, 0.6, 0.2, and 0.07 ng/ml. Blocking buffer alone is used as a positive control. The plates are then incubated for 2 hours at room temperature with agitation. After three wash cycles 100 μl/well of HRPO-conjugated anti-human IgG secondary reagent (Jackson ImmunoResearch Inc.) diluted in blocking buffer is added to all wells. After 2 hours incubation at room temperature with agitation the plates are washed three-times and 100 μl/well of TMB substrate solution (equal amounts of solution A and B) are pipetted into all wells. The plates are incubated for 10-20 min at RT with agitation and then the reaction is stopped by addition of 100 μl/well 1 M phosphoric acid. The absorbance is measured at a wavelength of 450 nm (reference 650 nm).
(§2) Binding of the fully human IGF-1 binding IgG1 antibodies to mouse IGF-1 (R&D Systems, No. 791-MG), rat IGF-1 (IBT, No. RU100), human IGF-2 (GroPep, No. FM001), mouse IGF-2 (R&D Systems, No. 792-MG), rat IGF-2 (IBT, No. AAU100), and human insulin (Roche) is also tested as described above for human IGF-1 (except that the concentration of human insulin used for coating is 3 μg/ml).

[2] = molecular target: T2, rat IGF-1 (Rattus norvegicus, UniProt P08025); assay: Direct immunosorbent assay (ELISA), rat IGF-1; assay type: binding; conditions: up to 50 ng/ml
T2 construct: Insulin-like growth factor-1 (IGF-1; a 70 amino-acid polypeptide); purchased IBT RU100
T2 sequence (P08025 49-118 limits assumed): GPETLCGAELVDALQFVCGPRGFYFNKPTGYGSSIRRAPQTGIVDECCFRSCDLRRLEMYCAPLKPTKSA
Experimental: as §1, §2

[3] = molecular target: T3, mouse IGF-1 (Mus musculus, UniProt P05017); assay: Direct immunosorbent assay (ELISA), mouse IGF-1; assay type: binding; conditions: up to 50 ng/ml
T3 construct: Insulin-like growth factor-1 (IGF-1; a 70 amino-acid polypeptide); purchased R&D Systems 791-MG
T3 sequence (P05017 49-118 limits assumed): as the sequence (P08025 49-118 limits assumed) above, with S69A counted along it
Experimental: as §1, §2

[4] = molecular target: T4, rat IGF-2 (Rattus norvegicus, UniProt P01346); assay: Direct immunosorbent assay (ELISA), rat IGF-2; assay type: binding; conditions: up to 50 ng/ml
T4 construct: insulin-like growth factor-2 (IGF-2; a 67 amino-acid polypeptide); purchased IBT AAU100
T4 sequence (P01346 25-91 limits assumed): as the sequence (P09535 25-91 limits assumed) above, with G3R, G5S counted along it
Experimental: as §1, §2

[5] = molecular target: T5, human insulin (Homo sapiens, UniProt P01308); assay: Direct immunosorbent assay (ELISA), human insulin; assay type: binding; conditions: highest concentration tested 50 ng/ml
T5 construct: and human insulin (Roche) is also tested as described above for human IGF-1; purchased Roche
T5 sequence (P01308 25-54 limits assumed): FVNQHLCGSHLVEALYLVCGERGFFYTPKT
T5 sequence (P01308 90-110 limits assumed): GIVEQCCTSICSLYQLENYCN
Experimental: as §1, §2

[6] = molecular target: T6, human IGF-2 (Homo sapiens, UniProt P01344); assay: Direct immunosorbent assay (ELISA), human IGF-2; assay type: binding; conditions: up to 50 ng/ml
T6 construct: insulin-like growth factor-2 (IGF-2; a 67 amino-acid polypeptide)
T6 sequence (P01344 25-91 limits assumed): as the sequence (P09535 25-91 limits assumed) above, with G3R, G5S, S22G, S32A, A35V, N36S counted along it
Experimental: as §1, §2

[7] = tested on: PTEN; assay: Western blot of PTEN levels in SK-ES-1 cells; assay type: cell-based; conditions: 100 nM, 24 hours
Experimental: (§3) 24 hours later the cells are lysed and the cell lysate frozen after the protein concentration is determined by Bradford assay. Western blotting is performed by applying 30 µg of protein lysates to an SDS PAGE gel (BioRad) and the gel blotted on a Citerian gel blotting sandwich. Western blots are incubated overnight with a rabbit anti-beta actin (control) antibody, a rabbit anti-PTEN antibody (Cell Signaling #9559), or a rabbit anti-phospho-pAKT antibody (Cell Signaling #4060), at 1:5000 (anti-beta actin), 1:1000 (anti-PTEN), or 1:2000 (anti-phosphoAKT) dilutions in 1% milk powder. Following washing in TBS an anti-rabbit IgG HRPO-conjugated secondary antibody (Amersham) is applied for 1 hour and after further washes in TBS antibody reactivity is detected by ECL and captured on Hyperfilm (Amersham).

[8] = tested on: total murine IGF-1; assay: Effect on total murine serum IGF-1 levels; assay type: in vivo, athymic NMRI nude mice; conditions: mice, single i.v. doses 3.13-25 mg/kg, 24 hours post administration
Experimental: (§4) Single intravenous (bolus) administrations of 25, 12.5, 6.25, and 3.13 mg/kg of test IGF antibody are given to female athymic NMRI nude mice, 6-8 weeks old (n=5). Single 10 minute intravenous administrations of 30, 100, 200 mg/kg of antibody 60819 are given to male and female Wistar Han rats, 6-8 weeks old (n=4 male, 4 female). Prior to antibody treatment and 24 hours post administration a blood sample is taken, serum collected, and total murine or rat IGF-1 levels determined using the OCTEIA rat/mouse total IGF-1 immunocytometric assay. The assay is performed according to the manufacturer's instructions, absorbance is measured at 450 nm and evaluated using the SoftMax Pro software. A standard curve is used to determine the serum concentration of total IGF-1 in ng/ml. Statistical analysis is performed using the GraphPad Prism software.

[9] = tested on: total rat IGF-1; assay: Effect on total rat serum IGF-1 levels; assay type: in vivo, Wistar Han rats; conditions: rats, single 10 minute i.v. 30, 100, 200 mg/kg, 24 hours post administration
Experimental: as §4

[10] = tested on: phosphorylation of AKT; assay: Western blot of phosphorylated AKT in SK-ES-1 cells; assay type: cell-based; conditions: 100 nM, 24 hours
Experimental: as §3

[11] = tested on: human serum induced phosphorylation of the IGF-1R; assay: Cell based IGF-1R phosphorylation ELISA, human serum stimulus; conditions: stimulus Human Serum Pooled from Healthy Donors (20%)
Experimental: Mouse fibroblast cell lines recombinantly expressing human IGF-1R or human IR-A are maintained in DMEM supplemented with 10% heat inactivated FCS, 1 mM sodium pyrovate, 0.075% sodium bicarbonate, MEM NEAA, and 0.3 µg/ml puromycin at 37° C. and 5% CO2 in a humidified incubator. Cells are detached with trypsin/EDTA, resuspended in growth medium and diluted to 100,000 cells/mL. 100 μL (10,000 cells) are seeded in wells of a sterile 96-well plate and incubated overnight in a humidified incubator at 37° C. and 5% CO2. The cells are then starved with 100 μL/well assay medium (DMEM supplemented with 0.5% heat inactivated FCS; 1 mM sodium pyrovate, 0.075% sodium bicarbonate, and MEM NEAA) and incubated overnight as before. […] 100 μL/well TMB substrate solution (Bender MedSystems, No. BMS406.1000) is added to the wells and incubated for 10 min with agitation, following this the reaction is stopped by adding 100 μL/well 1 M phosphoric acid and the absorbance read using a photometer (OD 450 nm, OD 650 nm as reference). Inhibition of IGF-1R or IR-A phosphorylation IC50 values are determined by graphical analysis.
The level of IGF bioactivity in human serum or plasma samples can also be measured using the IGF-1R phosphorylation cell based ELISA.

[12] = Pharmacokinetic parameters in rats; assay type: in vivo, Wistar rats; conditions: for AUC(0-72 h): first day of dosing; for t½φ: after last day of dosing with t(n) = 1008 hr
Experimental: Wistar rats are given five intravenous bolus administrations of 18, 52, and 248 mg/kg antibody every 72 hours. At various time points a blood sample is taken and the human antibody concentration in the plasma is determined by sandwich ELISA.

Molecule	binding to murine IGF-2 [1]	binding to rat IGF-1 [2]	binding to mouse IGF-1 [3]	binding to rat IGF-2 [4]	reactivity to human insulin [5]	binding to human IGF-2 [6]	effect on total levels of PTEN [7]	effect on serum total murine IGF-1 levels [8]	effect on serum total rat IGF-1 levels [9]	effect on phosphorylation of AKT [10]	IC50 IGF-1R phosphorylation [11] [µg/mL]	AUC(0-72 h) ([12]; 18 mg/kg i.v. bolus) [µg·h/mL]	t½φ ([12]; 18 mg/kg) [h]	AUC(0-72 h) ([12]; 52 mg/kg i.v. bolus) [µg·h/mL]	t½φ ([12]; 52 mg/kg) [h]	AUC(0-72 h) ([12]; 248 mg/kg i.v. bolus) [µg·h/mL]	t½φ ([12]; 248 mg/kg) [h]
B1	comparable cross-reactive binding	comparable cross-reactive binding	comparable cross-reactive binding	comparable cross-reactive binding	no reactivity	comparable cross-reactive binding	–	–	–	–	–	–	–	–	–	–	–
B2	comparable cross-reactive binding	comparable cross-reactive binding	comparable cross-reactive binding	comparable cross-reactive binding	no reactivity	comparable cross-reactive binding	do not affect the total levels of PTEN	dose dependent elevation	dose dependent elevation	inhibited AKT phosphorylation	–	–	–	–	–	–	–
B3	comparable cross-reactive binding	comparable cross-reactive binding	comparable cross-reactive binding	comparable cross-reactive binding	no reactivity	comparable cross-reactive binding	–	–	–	–	0.25	15500	210	40200	197	120000	255
